Source: the supplement of paper PMC7826260
The other results are listed elsewhere or left out. The data describe in vitro nicking of single-stranded DNA by Rep domains at 3 µM enzyme and 37 °C for 1 h; the strands have 90 letters, of which the middle is given. The score is log2 (uncut reads / reads without enzyme); strong cutting gives strongly negative numbers. There is no active / inactive call. Counts are relative to all reads; where an enzyme cuts many sequences, the uncut ones exceed 0.

How the values were obtained:
Assay in all cases: uncleaved DNA left, log2 of reads against the no-enzyme library (log2 ratio); higher = less cleavage (more negative = more Rep cleavage of the k-mer); sequences stand for … in CTCGTCCG…ACCGGAGA
[1] = system: T1, Rep nickase domain of Muscovy duck circovirus
T1 sequence (Rep 1-111, printed without the tag): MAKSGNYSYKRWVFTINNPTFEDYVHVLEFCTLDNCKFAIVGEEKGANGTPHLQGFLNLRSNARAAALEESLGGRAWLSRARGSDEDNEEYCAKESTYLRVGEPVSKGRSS
Method: (§1)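 A pool of 90-nt single-stranded DNAs with seven random bases just before the constant AC of the nick site (name = the seven bases) was cut by 3 µM recombinant His6-SUMO-tagged Rep nickase domain (300 nM DNA, 50 mM HEPES pH 8.0, 50 mM NaCl, 1 mM MnCl2, 1 h, 37 °C, three replicates). Uncut DNA was amplified and sequenced.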

[2] = system: T2, Rep nickase domain of banana bunchy top virus
T2 sequence (Rep 1-94, printed without the tag): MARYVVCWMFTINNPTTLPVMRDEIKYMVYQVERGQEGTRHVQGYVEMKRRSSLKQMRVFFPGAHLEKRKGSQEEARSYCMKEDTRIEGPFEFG
Method: as §1

[3] = system: T3, Rep nickase domain of cabbage leaf curl virus
T3 sequence (Rep 1-116, printed without the tag): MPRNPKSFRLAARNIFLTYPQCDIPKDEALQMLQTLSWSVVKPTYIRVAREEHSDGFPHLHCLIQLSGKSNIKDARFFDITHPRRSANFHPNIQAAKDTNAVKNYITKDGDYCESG
Method: as §1

[4] = system: T4, Rep nickase domain of chickpea chlorotic dwarf virus
T4 sequence (Rep 1-124, printed without the tag): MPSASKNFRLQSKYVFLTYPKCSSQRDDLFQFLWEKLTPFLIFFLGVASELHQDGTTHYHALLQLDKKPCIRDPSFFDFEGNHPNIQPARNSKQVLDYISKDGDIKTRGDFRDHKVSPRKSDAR
Method: as §1

[5] = system: T5, Rep nickase domain of faba bean necrotic yellows virus
T5 sequence (Rep 1-98, printed without the tag): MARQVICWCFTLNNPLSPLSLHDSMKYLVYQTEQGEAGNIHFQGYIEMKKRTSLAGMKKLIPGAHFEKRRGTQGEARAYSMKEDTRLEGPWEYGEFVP
Method: as §1

[6] = system: T6, Rep nickase domain of maize striate mosaic virus
T6 sequence (Rep 1-117, printed without the tag): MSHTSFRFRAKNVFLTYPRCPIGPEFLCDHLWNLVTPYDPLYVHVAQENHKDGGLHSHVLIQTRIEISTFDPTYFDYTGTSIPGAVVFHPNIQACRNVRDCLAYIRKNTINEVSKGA
Method: as §1

[7] = system: T7, Rep nickase domain of porcine circovirus 2
T7 sequence (Rep 2-116, printed without the tag): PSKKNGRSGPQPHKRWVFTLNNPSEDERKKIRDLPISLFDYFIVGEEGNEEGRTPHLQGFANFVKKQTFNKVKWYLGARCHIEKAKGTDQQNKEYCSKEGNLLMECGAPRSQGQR
Method: as §1

[8] = system: T8, Rep nickase domain of tomato golden mosaic virus
T8 sequence (Rep 1-124, printed without the tag): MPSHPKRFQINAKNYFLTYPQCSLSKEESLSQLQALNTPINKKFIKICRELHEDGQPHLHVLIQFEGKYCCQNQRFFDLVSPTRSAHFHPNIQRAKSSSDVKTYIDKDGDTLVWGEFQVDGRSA
Method: as §1

[9] = system: T9, Rep nickase domain of tomato yellow leaf curl virus
T9 sequence (Rep 1-136, printed without the tag): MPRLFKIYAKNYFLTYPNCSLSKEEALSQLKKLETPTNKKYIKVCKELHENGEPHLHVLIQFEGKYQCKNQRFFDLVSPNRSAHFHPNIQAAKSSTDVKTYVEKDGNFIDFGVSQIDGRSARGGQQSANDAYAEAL
Method: as §1

[10] = system: T10, Rep nickase domain of wheat dwarf virus
T10 sequence (Rep 1-137, printed without the tag): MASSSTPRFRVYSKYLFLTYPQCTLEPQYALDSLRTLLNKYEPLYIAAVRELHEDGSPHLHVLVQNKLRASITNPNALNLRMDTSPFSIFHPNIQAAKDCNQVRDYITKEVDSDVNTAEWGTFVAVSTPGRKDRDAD
Method: as §1

| Sequence | uncleaved DNA left (log2) [1] | uncleaved DNA left (log2) [2] | uncleaved DNA left (log2) [3] | uncleaved DNA left (log2) [4] | uncleaved DNA left (log2) [5] | uncleaved DNA left (log2) [6] | uncleaved DNA left (log2) [7] | uncleaved DNA left (log2) [8] | uncleaved DNA left (log2) [9] | uncleaved DNA left (log2) [10] |
| --- | --- | --- | --- | --- | --- | --- | --- | --- | --- | --- |
| CCAACAC | -0.0962 | -0.135 | -0.205 | -1.59 | 0.0216 | -0.834 | 0.0707 | -0.118 | -0.179 | -0.0418 |
| TGCTCGG | 0.0248 | -0.0349 | 0.428 | 1.28 | -0.0842 | 1.8 | -0.0349 | 0.0257 | -0.138 | -0.034 |
| AAGTTGA | 0.0427 | 0.0747 | 0.19 | 0.24 | 0.0575 | 0.253 | -2.03 | 0.128 | 0.0959 | 0.145 |
| TCCTCGG | -0.125 | -0.156 | 0.442 | 1.37 | 0.00425 | 1.93 | 0.0558 | -0.0129 | -0.206 | -0.0207 |
| TCTAGCC | -0.0146 | 0.0244 | -0.0102 | -0.418 | 0.0821 | -0.864 | 0.0416 | 0.0606 | 0.0729 | -0.0106 |
| AGTCATT | 0.025 | -1.12 | 0.308 | -0.702 | -1.88 | 0.532 | -3.46 | -0.0387 | 0.15 | 0.187 |
| CGACACC | -0.102 | -0.084 | -0.0256 | 0.407 | -0.0657 | 0.555 | -0.0529 | -0.102 | -0.125 | 0.00206 |
| AGATAGA | 0.0043 | 0.00902 | 0.0407 | 0.131 | 0.0857 | -0.706 | 0.105 | 0.0806 | 0.0442 | -0.0591 |
| TTTGGGA | 0.0929 | 0.125 | -0.044 | -0.0662 | 0.109 | -0.619 | 0.221 | 0.00726 | 0.129 | 0.0277 |
| GCGGAGT | -0.00375 | 0.0592 | 0.519 | 1.13 | 0.0337 | 1.38 | 0.192 | -0.00443 | 0.0833 | 0.188 |
| ATCGCAA | 0.125 | -0.00198 | -0.15 | -0.235 | 0.0917 | -0.89 | -0.00164 | 0.0773 | 0.115 | -0.0199 |
| GGCCCCC | -0.0183 | 0.168 | 0.45 | 0.919 | -0.138 | 1.54 | 0.0196 | -0.0215 | -0.0417 | 0.0856 |
| GCCCAAC | -0.042 | 0.0372 | -0.052 | -0.268 | -0.0993 | 0.0274 | 0.032 | -0.102 | -0.0692 | 0.0411 |
| CCGAGCC | -0.0201 | 0.026 | 0.173 | 0.432 | 0.00168 | 0.136 | -0.298 | 0.018 | 0.0376 | 0.131 |
| TCCTACG | -0.0607 | -0.191 | -0.993 | -1.06 | -0.0852 | -1.16 | -0.0019 | -0.131 | -0.197 | -0.149 |
